PubChem BioAssay AID588342 (National Center for Advancing Translational Sciences (NCATS), 2011)
Several values for one entry are separate records, joined by “and”; a condition that tells them apart may be missing. Identical values can stand only once. Among all 360,000 compounds or so, about 25,000 (6.9%) were called active. This list was built around the results that the source calls inconclusive (neither active nor inactive); the mix of calls is not that of the screen. Calls follow the shape of the dose curve; as a rule, active = well fitted inhibition curve with a large enough effect; inconclusive = small, poorly fitted or top-dose-only effect; inactive = flat fitted curve, though single readings scatter. A potency beside an inconclusive call is a rough fit, not a confirmed value.

target: Luciferin 4-monooxygenase (Photinus pyralis) (UniProt P08659); assay: qHTS profiling assay for firefly luciferase inhibitor/activator using purifed enzyme and Km concentrations of substrates (counterscreen for miR-21 project); conditions: purified FLuc, luminescence inhibition; series mostly up to 57.5 µM; also: nearly all actives have a fitted effect of over 55% in size
UniProt P08659, sequence (P08659 whole entry, looked up): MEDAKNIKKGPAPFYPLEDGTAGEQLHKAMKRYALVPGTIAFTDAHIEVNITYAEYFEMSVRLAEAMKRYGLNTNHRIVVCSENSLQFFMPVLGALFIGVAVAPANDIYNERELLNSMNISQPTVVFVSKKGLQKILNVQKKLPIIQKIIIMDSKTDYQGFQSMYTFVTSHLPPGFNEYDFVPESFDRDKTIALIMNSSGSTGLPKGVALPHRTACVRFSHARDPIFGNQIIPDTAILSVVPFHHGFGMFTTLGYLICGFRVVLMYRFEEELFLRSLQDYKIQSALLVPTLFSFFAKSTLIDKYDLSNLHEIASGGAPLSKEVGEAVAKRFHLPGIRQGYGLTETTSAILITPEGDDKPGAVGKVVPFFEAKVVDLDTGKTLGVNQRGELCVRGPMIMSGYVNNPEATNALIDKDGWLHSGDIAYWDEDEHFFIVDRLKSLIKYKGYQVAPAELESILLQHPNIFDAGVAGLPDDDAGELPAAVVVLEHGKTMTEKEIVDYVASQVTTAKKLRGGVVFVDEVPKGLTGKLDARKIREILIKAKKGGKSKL
Method in brief: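 Purified P. pyralis luciferase (10nM final) with 10uM D-luciferin and 10uM ATP (Km levels) in 50mM Tris acetate pH 7.5, 10mM Mg acetate, 0.01% Tween-20, 0.05% BSA; qHTS 6-point titration, ~60 µM downward; luminescence read.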
Potency is read from the fitted curve at half-maximal effect; tags tell the direction and shape of the fitted curve.

| Structure (SMILES) | Potency |
| --- | --- |
| CC(C)c1nnc(NC(=O)CSc2nc3ccccc3s2)s1 | inconclusive: 37.9 µM [inhibitor, partial curve, poor fit] |
| Cc1cc(C(=O)CSc2nnc(N)s2)c(C)n1C1CC1 | inconclusive: 16.9 µM [inhibitor, partial curve] |
| CC1=C(C(=O)NCCc2ccc(Cl)cc2)C2(CCCCC2)OC1=O | inactive |
| O=C(COC(=O)c1ccccc1NC(=O)C1CC1)c1ccc2c(c1)OCCO2 | active: 1.69 µM |
| Brc1csc(/C=N/Nc2nc3ccccc3s2)c1 | active: 1.2 µM |
| COc1ccc(NC(=O)c2ccc(NC(=O)COC(=O)c3cnc(C)cn3)cc2)cc1 | inconclusive: 23.9 µM [inhibitor, partial curve, poor fit] |
| Cc1ccc(C(=O)O)cc1NC(=O)Nc1ccc2c(c1)OCO2 | inconclusive: 26.9 µM [inhibitor, single point] |
| O=C(O)c1cccc(NC(=O)c2cn(-c3ccccc3)nc2-c2cccc(Br)c2)c1 | inconclusive: 23.9 µM [inhibitor, single point] |
| CCOc1ccccc1-c1nc(C(N)=O)c2[nH]c(=O)n(-c3ccccc3)c2n1 | inactive |
| COc1cc(NC(=O)c2cccs2)ccc1NC(=O)c1ccco1 | inconclusive: 7.57 µM [inhibitor, partial curve, poor fit] |
| CSc1nc2c(c(=O)[nH]1)C(c1ccc(Br)cc1)CC(=O)N2 (stereo unspecified) | inconclusive: 26.9 µM [inhibitor, partial curve, poor fit] |
| Cc1ccc(C(=O)CSc2nnc(CNc3ccc(F)cc3)o2)cc1 | inactive |
| CN(C)S(=O)(=O)c1cccc(NC(=O)CCc2c[nH]c3ccccc23)c1 | inconclusive: 37.9 µM [inhibitor, partial curve, poor fit] |
| S=C(NCCc1ccccc1)N1CCN(Cc2ccccc2)CC1 | inconclusive: 23.9 µM [inhibitor, single point] |
| CCOC(=O)c1c(C)[nH]c(C)c1S(=O)(=O)N1CCC(C(=O)Nc2ccccn2)CC1 | inactive |
| COc1ccc(C(=O)COC(=O)C(CCSC)NC(=O)COc2ccccc2)cc1 (stereo unspecified) | inconclusive: 33.8 µM [inhibitor, single point] |
| COc1cccc(C(=O)Nc2nnc(S(=O)(=O)N3CCOCC3)s2)c1 | inconclusive: 8.49 µM [inhibitor, partial curve, poor fit] and inconclusive: 37.9 µM [inhibitor, single point] |
| Cc1noc(C)c1S(=O)(=O)N1CCC(C(=O)N2CCN(c3ccccc3Cl)CC2)CC1 | inactive |
| NC(N)=NCC(O)CN(c1ccccc1)c1ccccc1 (stereo unspecified) | inactive |
| CCOC(=O)COc1cc(OCC(=O)OCC)c2c(=O)cc(-c3ccccc3)oc2c1 | inconclusive: 23.9 µM [inhibitor, partial curve] |
| Cc1ccc(-c2noc(C3CCN(S(=O)(=O)c4ccc5c(c4)OCCO5)CC3)n2)o1 | inactive |
| O=C(N/N=C/c1sc(=O)[nH]c1-[n+]1ccc2ccccc2c1)c1ccccc1[O-] | inconclusive: 26.9 µM [inhibitor, partial curve, poor fit] |
| O=C(Nc1ccc2oc(-c3ccc(Cl)c(Cl)c3)nc2c1)c1ncn[nH]1 | inconclusive: 0.757 µM [inhibitor, partial curve, poor fit] |

| Structure (SMILES) | Potency |
| --- | --- |
| O=C(CSc1ccc2ccccc2c1)Nc1ccncc1 | inconclusive: 30.1 µM [inhibitor, partial curve, poor fit] |
| COC(=O)CCSCc1cn2cc(Cl)ccc2n1 | inconclusive: 23.9 µM [inhibitor, partial curve, poor fit] |
| O=C(COC(=O)c1ccccc1Br)NCCC1=CCCCC1 | inconclusive: 21.3 µM [inhibitor, single point] |
| CSc1ccccc1NS(=O)(=O)c1cccc2nonc12 | inactive |
| Cc1ccc(/C=N/NC(=O)c2cccs2)s1 | active: 10.7 µM |
| C=CCNC(=O)N1CCC(c2nc3ccccc3s2)CC1 | inactive |
| Cc1ccccc1CNC(=O)CCCn1nc(C)c2sc3ccccc3c2c1=O | inconclusive: 37.9 µM [inhibitor, partial curve, poor fit] |
| CCOc1ccc(N/C(=C(/C(Cl)=C(Cl)Cl)[N+](=O)[O-])n2cncn2)cc1 | inconclusive: 37.9 µM [inhibitor, single point] |
| Cc1cc(/C=C2\SC(=O)N(C)C2=O)c(C)n1-c1ccc(S(N)(=O)=O)cc1 | inactive |
| Cc1c(C(N)=O)sc2nc(-c3ccccc3)cn12 | active: 19 µM |
| Cc1nn(-c2ccccc2)c(C)c1C(=O)OCc1ccc(C#N)cc1 | inconclusive: 21.3 µM [inhibitor, single point] |
| CCN1C(=O)c2ccccc2Sc2ccc(NC(=O)c3ccc(C)c(F)c3)cc21 | inactive |
| O=C(N/N=C/c1ccccc1O)c1cccc(C(F)(F)F)c1 | inconclusive: 3.79 µM [inhibitor, full curve] |
| Nc1ccc(-c2nc3cc(N)ccc3s2)cc1 | active: 0.675 µM |
| CNC(=O)Nc1ccccc1F | inactive |
| O=C(NCc1ccc(Cl)cc1)C(=O)NCC(c1ccco1)S(=O)(=O)c1cccs1 (stereo unspecified) | inactive |
| CCc1ccc(NC(=O)c2noc3c2CCCCC3)cc1 | active: 2.13 µM |
| Cc1cc(C)c(NC(=O)CSc2nnc3[nH]c(=O)cc(C)n23)c(C)c1 | inactive |
| c1ccc(-c2cc(-c3nc4ccccc4[nH]3)c3ccccc3n2)cc1 | inconclusive: 26.9 µM [inhibitor, partial curve, poor fit] |
| Cc1ccc2c(c1)c(N=Nc1cccc(C(=O)O)c1)c(O)n2C | active: 15.1 µM |
| CC(O)C(=O)N/N=C/c1cccc(Cl)c1Cl (stereo unspecified) | inconclusive: 21.3 µM [inhibitor, partial curve, poor fit] |
| CCC(C)c1ccccc1N1CC(C(=O)N2CCN(S(=O)(=O)c3ccccc3Br)CC2)CC1=O (stereo unspecified) | inactive |
| O=C(Nn1cnc2ccccc2c1=O)c1ccc(Br)cc1 | inconclusive: 23.9 µM [inhibitor, partial curve, poor fit] |
